Results are given in words; binding and its absence hold for the method and conditions named. Some entries that bind do so weakly or less than the wild type. Where a sequence is shown, tags or fusion partners need not be part of it.

Assay in all cases: two-hybrid; L40 yeast reporter strain cotransformed with LexABD-Vpr (bait) and Gal4AD hybrids (prey); growth on medium without histidine and β-gal filter assay (1 h to 4 h at 30°C)
In test [1] the target is Vpr-L23F fused to the LexA DNA binding domain (HIV-1 Lai isolate) (UniProt P05928).
In test [2] the target is wild type HIV-1 Vpr (Lai isolate) fused to the LexA DNA binding domain (HIV-1 Lai isolate) (UniProt P05928).
The target of test [3] is Vpr-L67Q fused to the LexA DNA binding domain (HIV-1 Lai isolate) (UniProt P05928).
The target in test [4] is Vpr-R73G fused to the LexA DNA binding domain (HIV-1 Lai isolate) (UniProt P05928).

Take “UNG2 fused to the Gal4 activation domain (from UniProt P13051-1 1-313)”: the binding entry in test [1], in test [2], in test [3] and in test [4] was “binds” in each case.

B1: human CG1 nucleoporin fused to the Gal4 activation domain (protein, UniProt O15504 1-423)
chain: MAICQFFLQGRCRFGDRCWNEHPGARGAGGGRQQPQQQPSGNNRRGWNTTSQRYSNVIQPSSFSKSTPWGGSRDQEKPYFSSFDSGASTNRKEGFGLSENPFASLSPDEQKDEKKLLEGIVKDMEVWESSGQWMFSVYSPVKKKPNISGFTDISPEELRLEYHNFLTSNNLQSYLNSVQRLINQWRNRVNELKSLNISTKVALLSDVKDGVNQAAPAFGFGSSQAATFMSPGFPVNNSSSDNAQNFSFKTNSGFAAASSGSPAGFGSSPAFGAAASTSSGISTSAPAFGFGKPEVTSAASFSFKSPAASSFGSPGFSGLPASLATGPVRAPVAPAFGGGSSVAGFGSPGSHSHTAFSKPSSDTFGNSSISTSLSASSSIIATDNVLFTPRDKLTVEELEQFQSKKFTLGKIPLKPPPLELLNV
For B1, the binding result is “no binding” in test [1], “binds” in test [2], “binds” in test [3] and “binds” in test [4].

The values are drawn from article PMC2211753.
